According to PubChem BioAssay AID504332 (National Center for Advancing Translational Sciences (NCATS), 2011):
Screen size: about 350,000 compounds; about 31,000 (8.9%) were called active. Inconclusive means that the source gave no clear call. Such entries were picked first, then a sample of the others. Calls come from the whole dose curve; as a rule, active = well fitted inhibition curve with a large enough effect; inconclusive = small, poorly fitted or top-dose-only effect; inactive = no such curve, though single readings can be large or run the other way. Potencies of inconclusive entries are doubtful fits and often do not repeat.

Biological target: Histone-lysine N-methyltransferase EHMT2 (Homo sapiens) (UniProt Q96KQ7)
Sequence of UniProt Q96KQ7 (Q96KQ7 whole entry, looked up): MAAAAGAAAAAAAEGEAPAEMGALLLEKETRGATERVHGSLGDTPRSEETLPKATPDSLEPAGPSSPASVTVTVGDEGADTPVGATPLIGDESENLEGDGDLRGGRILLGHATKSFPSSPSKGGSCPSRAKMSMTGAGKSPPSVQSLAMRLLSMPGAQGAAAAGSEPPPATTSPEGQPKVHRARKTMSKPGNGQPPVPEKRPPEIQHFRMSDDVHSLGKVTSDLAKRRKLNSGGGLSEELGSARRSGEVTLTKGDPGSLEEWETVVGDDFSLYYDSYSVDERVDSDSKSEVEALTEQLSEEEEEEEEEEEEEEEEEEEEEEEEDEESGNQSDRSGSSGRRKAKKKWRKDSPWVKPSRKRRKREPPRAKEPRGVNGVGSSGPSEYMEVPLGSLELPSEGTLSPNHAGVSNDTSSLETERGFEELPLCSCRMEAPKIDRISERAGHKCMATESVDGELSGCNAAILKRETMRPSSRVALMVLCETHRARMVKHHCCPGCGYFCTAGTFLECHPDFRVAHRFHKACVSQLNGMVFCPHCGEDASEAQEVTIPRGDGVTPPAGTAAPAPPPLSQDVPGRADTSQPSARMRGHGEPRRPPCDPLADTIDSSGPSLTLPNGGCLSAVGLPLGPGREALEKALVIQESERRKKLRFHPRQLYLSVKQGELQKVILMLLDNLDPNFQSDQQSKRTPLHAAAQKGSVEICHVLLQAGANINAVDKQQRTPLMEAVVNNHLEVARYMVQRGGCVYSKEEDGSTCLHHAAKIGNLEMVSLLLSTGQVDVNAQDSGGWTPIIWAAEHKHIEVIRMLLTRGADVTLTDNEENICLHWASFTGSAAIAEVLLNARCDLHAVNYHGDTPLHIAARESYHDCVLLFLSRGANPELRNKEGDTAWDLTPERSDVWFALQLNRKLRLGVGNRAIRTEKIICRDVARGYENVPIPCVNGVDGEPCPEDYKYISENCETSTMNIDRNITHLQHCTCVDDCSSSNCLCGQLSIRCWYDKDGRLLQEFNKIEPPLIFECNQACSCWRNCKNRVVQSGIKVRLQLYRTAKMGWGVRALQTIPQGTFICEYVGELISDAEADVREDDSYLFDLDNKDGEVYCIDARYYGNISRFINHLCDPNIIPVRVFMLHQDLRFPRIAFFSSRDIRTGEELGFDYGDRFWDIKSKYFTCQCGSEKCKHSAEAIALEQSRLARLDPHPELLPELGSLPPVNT
Assay: qHTS Assay for Inhibitors of Histone Lysine Methyltransferase G9a; note: nearly all actives have a fitted effect of over 75% in size
Settings: G9a H3K9 monomethylation, AlphaScreen, 2 h; activity, negative = inhibition: at 59 µM (top of the series) unless noted
How it was run: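 Step 1: enzyme (final 20 nM) with compound, 15 min RT. Step 2: substrate peptide 500 nM and SAM 20 uM, 2 h RT. Step 3: anti-H3K9me1 antibody and AlphaScreen beads, 10 min, then plate read.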
% is set by controls: 0 for no effect and ±100 for the full control effect; potency is the fitted concentration of half-maximal effect; tags give direction and shape of the fitted curve.

Row | SMILES | Potency | activity, negative = inhibition
1 | Fc1ccc2[nH]c3c(N4CCN(Cc5ccc6c(c5)OCO6)CC4)ncnc3c2c1 | inconclusive: 20 µM [inhibitor, single point] | –
2 | CC1Cc2nc(SCC(=O)Nc3nc4ccccc4s3)n(C)c(=O)c2S1 (stereo not drawn) | inconclusive: 39.8 µM [inhibitor, single point] | –
3 | C/C(=N/NS(=O)(=O)c1ccc(F)cc1)c1ccc(NC(=O)c2ccc(C)o2)cc1 | inconclusive: 25.1 µM [inhibitor, single point] | –
4 | CC(NC(=O)C(=O)NCCCn1ccnc1)c1ccccc1 (stereo not drawn) | inactive | –
5 | COc1ccc(-n2c(SCC(=O)Nc3nc(C)cs3)nnc2-c2ccoc2C)cc1 | inconclusive: 39.8 µM [inhibitor, single point] | –
6 | CSCC[C@H](NC(=O)Cc1c(C)c2cc3c4c(oc3cc2oc1=O)CCCC4)C(=O)O | active: 44.7 µM | –
7 | COc1ccccc1CNC(=O)c1ccccc1NC(=O)c1nsc2ccccc12 | inactive | –
8 | Cc1onc(-c2ccccc2Cl)c1C(=O)Nc1ccc(CN2CCCC2)cc1 | inconclusive: 50.1 µM [inhibitor, partial curve] | –
9 | Cc1cccc(N2CCN(C(=O)c3ccc4nc(-c5ccco5)c(-c5ccco5)nc4c3)CC2C)c1 (stereo not drawn) | inconclusive: 20 µM [inhibitor, single point] | –
10 | Cc1c(C(=O)Nc2ccc3c(c2)OCCO3)sc2nc(-c3ccccc3)cn12 | inactive | –
11 | O=C(NCCCO)/C(=C\c1ccco1)NC(=O)c1ccco1 | active: 70.8 µM | –
12 | COC(=O)C(C)Sc1nnc(Cc2cc(=O)[nH]c(=O)[nH]2)n1-c1cccc(OC)c1 (stereo not drawn) | inconclusive: 89.1 µM [inhibitor, single point] | –
13 | CN(C)CCCN(Cc1ccccc1)C(=S)Nc1ccc(OC(F)F)cc1 | inconclusive: 89.1 µM [inhibitor, single point] | –
14 | CCOc1ccc(-c2nnc(SCC(=O)NC3CCCC3)nc2-c2ccc(OCC)c(OC)c2)cc1OC | inconclusive: 39.8 µM [inhibitor, single point] | –
15 | CCOc1cccc(C2/C(=C(/O)c3ccc4c(c3)CC(C)O4)C(=O)C(=O)N2CCCn2ccnc2)c1 (stereo not drawn) | inconclusive: 50.1 µM [inhibitor, single point] | –
16 | COc1cccc(/C=C/C(=O)Nc2ccc3c(c2)OCCO3)c1 | inconclusive: 50.1 µM [inhibitor, single point] | –
17 | O=C(NCCCC1CCCC1)C1CCC(=O)N(Cc2cccc(C(F)(F)F)c2)C1 (stereo not drawn) | inconclusive: 89.1 µM [inhibitor, single point] | –
18 | O=C(Nc1ccccc1F)c1nc(S(=O)(=O)Cc2ccccc2F)ncc1Cl | inconclusive: 25.1 µM [inhibitor, partial curve, poor fit] | –
19 | CN(CC1CCCO1)S(=O)(=O)c1ccc(C(=O)Nc2nccs2)cc1 (stereo not drawn) | inconclusive: 50.1 µM [inhibitor, partial curve, poor fit] | –
20 | CCN1CCN(C(=S)Nc2ccc([N+](=O)[O-])cc2)CC1 | inconclusive: 22.4 µM [inhibitor, single point] | –
21 | CC1CN(C(=O)c2ccc(C(=O)c3ccccc3)cc2)CC(C)O1 (stereo not drawn) | inactive | –
22 | O=C(NCCCN1CCN(c2ccccc2)CC1)c1nnc(Cc2c(F)cccc2Cl)o1 | inactive | –

Row | SMILES | Potency | activity, negative = inhibition
23 | Cc1cccc(OCc2nc(C#N)c(NCCN(C)C)o2)c1 | inconclusive: 11.2 µM [inhibitor, partial curve] | –
24 | Cc1ccc(S(=O)(=O)Nc2nnc(CC(C)(C)C)s2)cc1 | active: 35.5 µM | –
25 | O=c1c2cc3c(cc2nc2sc(Nc4cccc([N+](=O)[O-])c4)nn12)OCO3 | active: 1.41 µM | –
26 | Oc1ccc(/C=N/n2c(C3CCCCC3)n[nH]c2=S)c(O)c1 | active: 1.58 µM | –
27 | Cc1c(N=C2C=C(Br)C(=O)C(Br)=C2)c(=O)n(-c2ccccc2)n1C | active: 7.08 µM | –
28 | Oc1[nH]c2ccccc2c1C1=NCCCC1 | inconclusive: 28.2 µM [inhibitor, single point] | –
29 | O=C(NCCc1ccccc1)N1c2ccccc2Sc2ccccc21 | inactive | –
30 | CN(c1ccccc1)c1nc(N)c([N+](=O)[O-])c(N2CCCC2)n1 | inconclusive: 89.1 µM [inhibitor, single point] | –
31 | O=C(Nc1cccc(Br)c1)c1ccc2c(c1)SC1=NS(=O)(=O)CCN12 | inactive | –
32 | CCCCN(C(=O)C1CCC(CNS(=O)(=O)c2cccc3nsnc23)CC1)c1ccccc1 (stereo not drawn) | inconclusive: 17.8 µM [inhibitor, partial curve, poor fit] | –
33 | COc1ccc(N2CCN(C(CNS(C)(=O)=O)c3ccco3)CC2)cc1 (stereo not drawn) | inconclusive: 2 µM [inhibitor, full curve, poor fit] | –
34 | Cc1ccc(C(=O)N/N=C/c2nc3ccccc3n2C)cc1 | – | inactive: 32.5% [at 12.7 µM]
35 | O=C(C[n+]1cc(Br)cc(Br)c1)c1ccc(Cl)cc1 | inconclusive: 22.4 µM [inhibitor, full curve, poor fit] | –
36 | COC(=O)c1ccc(CNC(=O)COC(=O)Cc2ccsc2)cc1 | inactive | –
37 | COc1ccc(CCN(C)C(=O)C2CC(=O)N(Cc3ccc(C)cc3)C2)cc1OC (stereo not drawn) | inactive | –
38 | COc1ccc(C2(C)NC(=O)N(CC(=O)Nc3ccc4ccccc4c3)C2=O)cc1OC (stereo not drawn) | inconclusive: 79.4 µM [inhibitor, partial curve, poor fit] | –
39 | COc1ccc(OC)c(NC(=O)C2CCCN(S(=O)(=O)c3ccc4c(c3)CCCC(=O)N4)C2)c1 (stereo not drawn) | inactive | –
40 | O=C(Oc1ccc2c(c1)OCO2)c1cccs1 | inconclusive: 1.12 µM [inhibitor, full curve, poor fit] | –
41 | Cc1ccc2cc3c(N)c4c(C)ccc(C)c4nc3nc2c1 | inconclusive: 79.4 µM [inhibitor, single point] | –
42 | CCN(CC)CCNC(=O)Cc1c(C(=O)O)n(C)c2ccccc12 | inconclusive: 89.1 µM [inhibitor, partial curve, poor fit] | –
43 | COc1ccc(OC)c(C(=O)NC(CC(N)=O)c2ccc(N3CCC(N4CCCCC4)CC3)c([N+](=O)[O-])c2)c1 (stereo not drawn) | inconclusive: 50.1 µM [inhibitor, partial curve, poor fit] | –
